Measured values as given in PubChem BioAssay AID1460 (National Center for Advancing Translational Sciences (NCATS), 2008).
Where “and” joins values, the source holds several entries; their conditions need not be identical. Equal entries are not always repeated. In all, about 270,000 compounds went through this assay and about 5,800 (2.1%) were called active. This list was built around the results that the source calls inconclusive (neither active nor inactive); the mix of calls is not that of the screen. The call rests on the fitted dose curve; in most records, active means well fitted inhibition curve with a large enough effect; inconclusive means small, poorly fitted or top-dose-only effect; inactive means flat fitted curve, though single readings scatter. Where the call is inconclusive, the potency comes from a doubtful curve fit.

Molecular target: Microtubule-associated protein tau (Homo sapiens) (UniProt P10636)
Assay: qHTS for Inhibitors of Tau Fibril Formation, Thioflavin T Binding; further: nearly all actives have a fitted effect of over 55% in size
Settings: recombinant tau K18 P301L (four-repeat tau fragment), heparin-induced fibrillization, ThT fluorescence; series mostly up to 57.4 µM
Summary of the method: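 Heparin-induced fibrillization of the P301L-mutant K18 repeat-domain fragment of human tau was followed by ThT binding in quantitative high-throughput format.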
Potency means the concentration at half of the fitted maximal effect; tags describe the fitted curve by direction and shape.

Chain of UniProt P10636 (P10636 whole entry, looked up): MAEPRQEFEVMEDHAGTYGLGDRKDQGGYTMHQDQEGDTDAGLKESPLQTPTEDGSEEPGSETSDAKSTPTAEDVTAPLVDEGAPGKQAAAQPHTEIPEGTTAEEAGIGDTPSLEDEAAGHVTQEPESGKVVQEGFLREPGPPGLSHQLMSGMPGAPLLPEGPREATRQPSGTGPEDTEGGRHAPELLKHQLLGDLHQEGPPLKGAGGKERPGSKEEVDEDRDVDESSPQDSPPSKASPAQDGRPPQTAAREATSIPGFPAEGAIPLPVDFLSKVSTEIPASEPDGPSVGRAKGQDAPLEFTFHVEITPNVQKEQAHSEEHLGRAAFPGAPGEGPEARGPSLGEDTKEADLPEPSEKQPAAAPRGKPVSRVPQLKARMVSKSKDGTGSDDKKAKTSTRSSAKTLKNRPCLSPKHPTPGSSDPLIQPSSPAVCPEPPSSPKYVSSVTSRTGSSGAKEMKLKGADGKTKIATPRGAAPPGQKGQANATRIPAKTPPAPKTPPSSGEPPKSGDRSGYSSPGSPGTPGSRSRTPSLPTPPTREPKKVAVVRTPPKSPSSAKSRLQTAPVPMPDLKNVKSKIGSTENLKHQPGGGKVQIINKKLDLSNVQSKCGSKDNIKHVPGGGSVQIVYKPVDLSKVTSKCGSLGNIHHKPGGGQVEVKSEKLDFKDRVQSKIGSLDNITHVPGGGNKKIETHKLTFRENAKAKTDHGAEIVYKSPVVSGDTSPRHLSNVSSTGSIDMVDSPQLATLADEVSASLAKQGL

Row | Compound | Potency
1 | CCOC(=O)c1c(N)ssc1=S | active: 12.6 µM and active: 7.94 µM
2 | O=C(Nc1ccc(-c2csc(Nc3ccccc3)n2)cc1)c1cccc(C(F)(F)F)c1 | inconclusive: 5.01 µM [inhibitor, partial curve]
3 | Cc1ccc(S(=O)(=O)NNC(=O)c2cc3cc4ccccc4nc3s2)cc1 | inconclusive: 35.5 µM [inhibitor, single point]
4 | CN(C)c1ccc(CNC(=O)c2ccc(Cn3c(SCc4ccccc4)nc4cccnc43)cc2)cc1 | inconclusive: 12.6 µM [inhibitor, partial curve]
5 | Cc1cccc(/C=N\Nc2nnc(-c3ccccc3)c(=O)[nH]2)c1 | inconclusive: 3.16 µM [inhibitor, full curve]
6 | Cc1ccccc1CNC(=O)c1ccc2c(c1)c(C)c(C)n2C | inactive
7 | O=C(c1ccc(Cl)cc1)c1cnc(Nc2ccccc2)s1 | inconclusive: 2.82 µM [inhibitor, full curve]
8 | O=C(CNS(=O)(=O)c1ccc(Cl)cc1)OCC(=O)N1CCCc2ccccc21 | inconclusive: 10 µM [inhibitor, partial curve, poor fit]
9 | CC1=NN(c2ccccc2)C(=O)/C1=C\C=C1/N(C)c2ccccc2C1(C)C | active: 2.24 µM
10 | CCCc1cc(=O)[nH]c(SCC(=O)N2CCN(c3ccccc3)CC2)n1 | inconclusive: 25.1 µM [inhibitor, single point]
11 | COc1ccc(CNC(=O)CSCc2nc(-c3ccccc3C)oc2C)cc1 | inactive
12 | COc1ccc(CNC(=O)c2ccc(-c3nc(CSc4ccccc4)c(C)o3)cc2)cc1OC | inactive
13 | COc1ccc(Nc2ccc3c(c2)=NC2(CCCCC2)[N+]=3[O-])cc1 | active: 4.47 µM
14 | CCNC(=O)[C@H]1O[C@H](n2cnc3c(N)nc(NCCc4ccc(CCC(=O)O)cc4)nc32)[C@@H](O)[C@@H]1O | inactive
15 | O=C(Nc1ccc(F)cc1)Nc1ccc(NC(=O)c2ccccc2O)cc1 | inconclusive: 0.891 µM [inhibitor, full curve]
16 | N#C/C(=C/c1ccccc1[N+](=O)[O-])c1nc(C2CC2)cs1 | inconclusive: 12.6 µM [inhibitor, partial curve]
17 | COc1ccc(-c2ccc3c(N)c(C(=O)c4ccc(OC)c(OC)c4)sc3n2)cc1 | inconclusive: 20 µM [inhibitor, single point]
18 | COC(=O)c1c(-c2ccccc2)csc1NC(=O)c1c(-c2ccccc2)noc1C | inactive
19 | CN=Cc1sc2ccccc2c1O | inactive
20 | O=[N+]([O-])c1ccccc1CNC(Cc1ccccc1)c1ccccc1 (stereo not given) | inactive
